The chains are these.
B1: chr9:37126384:37126485:+|CDS|ENSG00000147905|unk|total|mutant (ssRNA)
RNA: GGGAGUUCUACAGUCCGACGAUCUAUCGAGAUGAGUCAUCCCGUGAACUGAGUGUUGACCGUGAGGUGGAAUUUCAACUCUACCGCCAAAUUCAUUAUGCCCAAGAUCUUGAUGAUGUCAUCAGGGAGGAAGAGCAUGAAGAACAACAGAGGAUUGAGCAUCA
B2: ENSG00000147421:stop:overlap|stop_codon|ENSG00000147421|stop_codon|NA|stop_codon (ssRNA)
RNA: GGGAGUUCUACAGUCCGACGAUCACACUUGGUCCCCUGAGAGAAGGAUGGAAGAAAAUAAAUGGAAGUUGCUUUCUGCAGGGUAGGAGAUUGGCUGGACAGUUACUUCAAUGAGAAUCAAUACCCAGAUGAAGCAAAGAGGGACAACAGAGGAUUGAGCAUCA
B3: chr17:73284618:73284719:-|3pUTR|ENSG00000179604|msi1|FALSE|unique (ssRNA)
RNA: GGGAGUUCUACAGUCCGACGAUCGGGCACUCGCUCAGUCCCUAGGGGCUUGUUUGUUCUUUAUUAUUGUGUUUAAAUCCUUAUAGAGCAAUAUCAGGAUGGUGUUAAUAGGUCUGCCUCAGAAUGAGAAUCAAUCCUUUUAGACAACAGAGGAUUGAGCAUCA
B4: ENSG00000071189:stop:overlap|stop_codon|ENSG00000071189|stop_codon|NA|stop_codon (ssRNA)
RNA: GGGAGUUCUACAGUCCGACGAUCUUGGACCCUUUGUAAUAUUUUAUUUGACAUUUUAUAUCCUCUGCUUUGUGGGUGGUGCUUAGAAGAAAUGAAACGGGAAGCCAGGACUAUUAAGAUUGAUAGAAGAUUGACGGGUGCCAACAACAGAGGAUUGAGCAUCA
B5: chr5:74627411:74627511:-|3pUTR|ENSG00000171617|msi1_unk|total|mutant (ssRNA)
RNA: GGGAGUUCUACAGUCCGACGAUCUUUGUAAAACUGUUAUUUUUUUUUUUUUCACAAUGUGAAACUGAAGGUCAAUAAAUUAUCCGAGAUUUUCUCUUCAUUAUGUGUGUGGGUCUUCAUUUGAAUAAGACACAAUUUGAGGCACAACAGAGGAUUGAGCAUCA
B6: chr19:582815:582998:+|CDS_3pUTR|ENSG00000172270|msi1_unk|FALSE|overlapping (ssRNA)
RNA: GGGAGUUCUACAGUCCGACGAUCUCAUACACUUCCUUCUUUUUUAAAAAAGUUGGGUUUUCUCCAUUCAGGAUUCUGUUCCUUAGGUUUUUUUCCUUCUGAAGUGUUUCACGAGAGCCCGGGAGCUGCUGCCCUGCGGCCCCGCAACAGAGGAUUGAGCAUCA
B7: chr2:157736639:157736676:-|3pUTR|ENSG00000115170|msi1_unk|FALSE|overlapping (ssRNA)
RNA: GGGAGUUCUACAGUCCGACGAUCCUUCACAUUUGUAUGUGUGUAGACUGUAACUUUUUUUCAGUUCAUAUGCAGAACGUAUUUAGCCAUUACCCACGUGACACCACCGAAUAUAUUACUGAUUUAGAAGCAAAGAUUUCAGUACAACAGAGGAUUGAGCAUCA
B8: ENSG00000107863:be:win_3251|CDS|ENSG00000107863|bound_else_gene|NA|bound_elsewhere_windowed (ssRNA)
RNA: GGGAGUUCUACAGUCCGACGAUCCUUUGCUUGGUGCUAAAUCAGAGCCAAAGACUCAAAGCCCACACUCUCCGAAGGAAGAGUCGGAAAGGAAACUUCUCAGUAAAGAUGAUACCAGUCCCCCAAAAGACAAAGGCACAUGGACAACAGAGGAUUGAGCAUCA
B9: chr21:29063390:29063550:-|CDS|ENSG00000156261|unk|FALSE|unique (ssRNA)
RNA: GGGAGUUCUACAGUCCGACGAUCGUUUACUUGUUUUGCCAGGGAACAGUGUUGAUAAAGACUGCUGAAGAAUUGAUGAAUUUUAGUAAGGGAGAAGAAAACCUCAUGGAUGCACAAGUCAAAGCUAUUGCUGAUACUGGUGCACAACAGAGGAUUGAGCAUCA
B10: chr2:190659421:190659522:+|CDS|ENSG00000138386|unk|FALSE|unique (ssRNA)
RNA: GGGAGUUCUACAGUCCGACGAUCAGAGACUGGGUCACAAACCCUGGGCUUUUCAAUCAGCCACUGACUUCCCUUCCUGUCAGUAGCAUACCCAUCUAUAAAUUACCAGAGGGAUCACCAACAUGGCUGGGAAUAUCCUGCAGUCAACAGAGGAUUGAGCAUCA
B11: ENSG00000038382:stop:overlap|stop_codon|ENSG00000038382|stop_codon|NA|stop_codon (ssRNA)
RNA: GGGAGUUCUACAGUCCGACGAUCUUGUAAGUAUAGGCGUUCAGAAUUGUAAGUCUAAAGGUAACACAAUUGCAGUCUUUUUGUAGGUAGAGAAGAAUUGUUCAUUGUCUUCAGUUUAACCUCCCAAUCUGUCCUGAAAUGUUCCAACAGAGGAUUGAGCAUCA
B12: chr12:123662440:123662541:+|3pUTR|ENSG00000111358|unk|total|mutant (ssRNA)
RNA: GGGAGUUCUACAGUCCGACGAUCAAUGGAAAUCACAAUUUUAAGUCCCGGAAAUAAAGUAUUAUAUAUACUUUCAAACAAGCCCGCAAGGCUUUUAUUAUUACUUUUUUAUUUGAAAUAUCUUAUAUAUUUGGUCCGUUCUGUCAACAGAGGAUUGAGCAUCA
B13: chr13:52643008:52643109:+|CDS|ENSG00000139675|unk|total|mutant (ssRNA)
RNA: GGGAGUUCUACAGUCCGACGAUCCAUACUGUGAAGGGCCACAACUGUGAAGUCCGAAAAGCCCUGCCAAAGCAAGAGAUGGCCCGUGCUUCAUCCAGCCAAAGAGGUCGAAGGGGUUCUGGAAACUUUGGUGGUGGUCGUGGACAACAGAGGAUUGAGCAUCA
B14: chr2:240467872:240467977:+|3pUTR|ENSG00000063660|msi1|FALSE|unique (ssRNA)
RNA: GGGAGUUCUACAGUCCGACGAUCCUCUGGCACAGUGAUGCCGGGCGCCAGGACAGCAGCACUCCCGCUGCACACAGACGGCCUAGGGGUGGCGCUCAGACCCCACCCUACGCUCAUCUCUGGAAGGGGCAGCCCUGAGUGGUCCAACAGAGGAUUGAGCAUCA

Some of the results follow.

Drawing on publication PMC12136788, this text covers binding signal for 14 molecules.

The assay concerns the target T1, UNK ZnF1-6 (called full-length) (human, UniProt Q9C0B0 30-357).
T1 sequence: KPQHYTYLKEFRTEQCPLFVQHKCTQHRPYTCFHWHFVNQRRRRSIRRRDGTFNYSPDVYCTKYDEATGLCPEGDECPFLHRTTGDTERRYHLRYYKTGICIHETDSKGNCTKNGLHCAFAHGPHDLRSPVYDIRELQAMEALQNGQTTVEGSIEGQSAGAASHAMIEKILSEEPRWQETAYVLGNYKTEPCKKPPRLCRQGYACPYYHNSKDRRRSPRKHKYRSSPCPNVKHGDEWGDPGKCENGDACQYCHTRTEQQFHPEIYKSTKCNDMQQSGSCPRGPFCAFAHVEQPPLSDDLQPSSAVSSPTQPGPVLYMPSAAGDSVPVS
Description: nsRBNS (natural sequence RNA bind-n-seq); RBNS binding buffer (assumed for nsRBNS): 25 mM Tris pH 7.5, 150 mM KCl, 3 mM MgCl2, 0.01% Triton X-100, 500 ug/ml BSA, 20 U/ml SUPERase-In, 4 C; UNK is unkempt and MSI1 is Musashi-1; names of the RNAs are library labels; protein concentration not given here; high values mean tight binding.
B1 came in with a binding signal of 0.413 enrichment R.

The molecule B2 displayed a binding signal of 0.588 enrichment R. Take B3: the binding signal turned out to be 0.82 enrichment R. Under B4 stands 0.696 enrichment R; under B5, 0.75 enrichment R; under B6, 0.839 enrichment R. The figure for B7 is 0.804 enrichment R; for B8 it is 0.517 enrichment R; for B9 it is 0.523 enrichment R.

For the molecule B10, the binding signal came out at 0.918 enrichment R. For B11, the binding signal came to 0.693 enrichment R. Regarding B12, the binding signal worked out at 1.78 enrichment R. As to B13, the binding signal stood at 0.629 enrichment R. B14: the binding signal was found to be 0.735 enrichment R.
